According to patent publication EP4714971A1 (Shanghai Hansoh Biomedical Co., Ltd., dated 2024):
One block for each binder: values may come before it.

How the values were obtained:
SEZ6L-Fc protein = molecular target: T1, SEZ6L-Fc protein (human, UniProt Q9BYH1 29-958, limits assumed); assay: ELISA, coated Fc fusion protein at 1 ug/mL
T1 construct: The construct is not described beyond its name; also called SEZ6L protein; Human SEZ6L1; not shown: Fc
T1 sequence (looked up): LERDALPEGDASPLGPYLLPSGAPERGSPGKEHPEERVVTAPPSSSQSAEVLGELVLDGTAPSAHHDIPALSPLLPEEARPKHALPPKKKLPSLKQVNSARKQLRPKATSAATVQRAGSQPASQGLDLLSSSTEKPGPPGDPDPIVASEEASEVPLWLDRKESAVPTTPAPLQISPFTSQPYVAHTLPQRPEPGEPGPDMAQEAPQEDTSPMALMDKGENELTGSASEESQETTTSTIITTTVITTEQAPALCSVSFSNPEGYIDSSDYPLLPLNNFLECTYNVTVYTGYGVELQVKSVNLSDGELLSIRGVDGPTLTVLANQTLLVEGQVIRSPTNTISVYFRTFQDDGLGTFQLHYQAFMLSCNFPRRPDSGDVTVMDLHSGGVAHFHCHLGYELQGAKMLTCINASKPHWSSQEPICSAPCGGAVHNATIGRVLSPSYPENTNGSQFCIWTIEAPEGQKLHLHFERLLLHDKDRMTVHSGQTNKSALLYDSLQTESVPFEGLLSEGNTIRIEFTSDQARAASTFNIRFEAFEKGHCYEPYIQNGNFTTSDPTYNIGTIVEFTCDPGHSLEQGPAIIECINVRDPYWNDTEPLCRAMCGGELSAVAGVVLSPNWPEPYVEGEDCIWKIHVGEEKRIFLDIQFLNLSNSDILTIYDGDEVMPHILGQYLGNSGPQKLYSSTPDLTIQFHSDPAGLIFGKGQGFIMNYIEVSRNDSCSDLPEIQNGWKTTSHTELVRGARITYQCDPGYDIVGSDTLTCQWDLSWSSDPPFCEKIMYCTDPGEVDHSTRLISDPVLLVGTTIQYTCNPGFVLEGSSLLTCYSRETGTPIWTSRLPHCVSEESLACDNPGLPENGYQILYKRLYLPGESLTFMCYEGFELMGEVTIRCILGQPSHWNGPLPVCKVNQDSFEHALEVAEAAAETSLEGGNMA

SEZ6L2-Fc = molecular target: T2, SEZ6L2-Fc (human, UniProt Q6UXD5 28-844, limits assumed); assay: ELISA, coated Fc fusion protein at 1 ug/mL
SEZ6L2-Fc, sequence (Q6UXD5 28-844 limits assumed): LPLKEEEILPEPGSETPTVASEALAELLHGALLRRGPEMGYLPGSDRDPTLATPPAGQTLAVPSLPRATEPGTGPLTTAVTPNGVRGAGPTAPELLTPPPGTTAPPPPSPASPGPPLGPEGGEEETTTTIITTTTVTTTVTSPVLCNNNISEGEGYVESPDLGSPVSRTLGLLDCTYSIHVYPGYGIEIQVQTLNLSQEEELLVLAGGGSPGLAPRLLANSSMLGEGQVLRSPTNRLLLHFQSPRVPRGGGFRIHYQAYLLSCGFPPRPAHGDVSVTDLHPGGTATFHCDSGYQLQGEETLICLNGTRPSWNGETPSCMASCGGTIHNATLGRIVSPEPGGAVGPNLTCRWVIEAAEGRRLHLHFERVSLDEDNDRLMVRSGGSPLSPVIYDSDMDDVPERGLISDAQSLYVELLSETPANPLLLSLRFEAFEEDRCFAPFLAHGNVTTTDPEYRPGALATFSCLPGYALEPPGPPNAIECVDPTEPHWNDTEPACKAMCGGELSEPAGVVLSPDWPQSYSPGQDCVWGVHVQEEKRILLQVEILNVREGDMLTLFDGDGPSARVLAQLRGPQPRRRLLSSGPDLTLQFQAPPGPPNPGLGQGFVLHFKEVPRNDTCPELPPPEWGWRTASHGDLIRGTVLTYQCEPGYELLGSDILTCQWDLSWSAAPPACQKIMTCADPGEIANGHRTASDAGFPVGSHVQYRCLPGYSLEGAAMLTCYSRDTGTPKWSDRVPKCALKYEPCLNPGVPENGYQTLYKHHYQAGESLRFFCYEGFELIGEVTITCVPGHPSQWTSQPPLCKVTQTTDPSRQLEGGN
T2 construct: The construct is not described beyond its name; also called SEZ6L2 protein; Human SEZ6L2; not shown: Fc

[1] = molecular target: T3, human SEZ6 expressed on stably transfected CHO-K1 cells (human, UniProt Q53EL9 20-994); assay: flow cytometry on CHO-K1 cells expressing human SEZ6
T3 construct: also called CHO-SEZ6; hSEZ6
T3 sequence: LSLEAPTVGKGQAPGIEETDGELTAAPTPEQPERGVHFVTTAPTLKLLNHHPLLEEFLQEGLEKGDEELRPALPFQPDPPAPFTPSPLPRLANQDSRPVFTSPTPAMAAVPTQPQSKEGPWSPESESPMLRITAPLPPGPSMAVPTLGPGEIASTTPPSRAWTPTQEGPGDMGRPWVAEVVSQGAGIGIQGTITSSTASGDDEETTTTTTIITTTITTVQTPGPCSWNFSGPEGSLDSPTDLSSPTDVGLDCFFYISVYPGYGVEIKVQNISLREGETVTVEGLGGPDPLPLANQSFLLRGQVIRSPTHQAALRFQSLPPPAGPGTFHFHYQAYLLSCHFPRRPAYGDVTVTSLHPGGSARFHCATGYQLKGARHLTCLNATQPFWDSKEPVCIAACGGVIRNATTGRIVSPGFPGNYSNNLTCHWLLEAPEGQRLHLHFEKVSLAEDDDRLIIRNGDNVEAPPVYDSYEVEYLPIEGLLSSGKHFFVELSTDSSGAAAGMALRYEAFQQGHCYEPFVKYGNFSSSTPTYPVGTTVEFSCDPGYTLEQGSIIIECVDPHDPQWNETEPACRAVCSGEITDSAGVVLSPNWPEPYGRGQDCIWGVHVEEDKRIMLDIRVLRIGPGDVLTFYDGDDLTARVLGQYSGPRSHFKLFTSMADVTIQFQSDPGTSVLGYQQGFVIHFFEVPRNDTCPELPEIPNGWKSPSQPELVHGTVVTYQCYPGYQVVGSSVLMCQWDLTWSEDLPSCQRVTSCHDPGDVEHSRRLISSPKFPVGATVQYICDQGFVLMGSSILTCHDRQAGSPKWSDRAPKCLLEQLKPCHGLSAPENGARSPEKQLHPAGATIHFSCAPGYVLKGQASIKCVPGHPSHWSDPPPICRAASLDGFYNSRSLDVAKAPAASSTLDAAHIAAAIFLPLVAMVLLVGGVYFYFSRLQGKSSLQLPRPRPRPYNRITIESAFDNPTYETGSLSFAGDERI

[2] = molecular target: T4, Recombinant human SEZ6-His6 protein (human, UniProt Q53EL9 20-925); assay: SPR (BIAcore 8K), antibody captured on protein A chip, SEZ6-His6 as analyte, 1:1 Langmuir model
T4 construct: also called His-tagged SEZ6 antigen
T4 sequence: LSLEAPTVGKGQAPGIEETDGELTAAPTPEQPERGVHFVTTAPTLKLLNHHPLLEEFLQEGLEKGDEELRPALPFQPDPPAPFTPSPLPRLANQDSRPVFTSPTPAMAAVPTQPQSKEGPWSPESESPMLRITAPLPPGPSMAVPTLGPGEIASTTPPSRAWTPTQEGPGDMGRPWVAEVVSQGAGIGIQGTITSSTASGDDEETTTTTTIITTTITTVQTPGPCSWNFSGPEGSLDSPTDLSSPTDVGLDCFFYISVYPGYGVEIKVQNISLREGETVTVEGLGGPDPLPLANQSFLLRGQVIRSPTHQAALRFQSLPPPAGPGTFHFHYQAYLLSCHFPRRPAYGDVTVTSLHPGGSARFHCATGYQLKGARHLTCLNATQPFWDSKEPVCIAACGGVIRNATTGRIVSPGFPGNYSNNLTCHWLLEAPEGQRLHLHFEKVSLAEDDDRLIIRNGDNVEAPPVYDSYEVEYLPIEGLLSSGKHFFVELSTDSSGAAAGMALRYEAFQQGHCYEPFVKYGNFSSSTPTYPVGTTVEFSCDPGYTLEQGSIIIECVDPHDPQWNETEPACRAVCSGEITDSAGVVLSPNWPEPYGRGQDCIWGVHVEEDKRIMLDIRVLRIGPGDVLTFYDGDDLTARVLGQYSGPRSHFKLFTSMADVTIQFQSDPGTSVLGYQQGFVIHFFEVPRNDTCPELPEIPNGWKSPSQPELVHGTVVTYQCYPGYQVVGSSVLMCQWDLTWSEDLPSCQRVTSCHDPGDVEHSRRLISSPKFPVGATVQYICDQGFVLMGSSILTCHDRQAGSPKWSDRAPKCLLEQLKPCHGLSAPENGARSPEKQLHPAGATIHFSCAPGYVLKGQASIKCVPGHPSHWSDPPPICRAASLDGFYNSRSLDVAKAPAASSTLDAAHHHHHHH

[3] = molecular target: T5, Recombinant monkey SEZ6-His6 protein (cynomolgus monkey, UniProt Q53EL9 20-925 (human entry)); assay: as above
T5 construct: also called Cynomolgus monkey SEZ6-His6
T5 chain: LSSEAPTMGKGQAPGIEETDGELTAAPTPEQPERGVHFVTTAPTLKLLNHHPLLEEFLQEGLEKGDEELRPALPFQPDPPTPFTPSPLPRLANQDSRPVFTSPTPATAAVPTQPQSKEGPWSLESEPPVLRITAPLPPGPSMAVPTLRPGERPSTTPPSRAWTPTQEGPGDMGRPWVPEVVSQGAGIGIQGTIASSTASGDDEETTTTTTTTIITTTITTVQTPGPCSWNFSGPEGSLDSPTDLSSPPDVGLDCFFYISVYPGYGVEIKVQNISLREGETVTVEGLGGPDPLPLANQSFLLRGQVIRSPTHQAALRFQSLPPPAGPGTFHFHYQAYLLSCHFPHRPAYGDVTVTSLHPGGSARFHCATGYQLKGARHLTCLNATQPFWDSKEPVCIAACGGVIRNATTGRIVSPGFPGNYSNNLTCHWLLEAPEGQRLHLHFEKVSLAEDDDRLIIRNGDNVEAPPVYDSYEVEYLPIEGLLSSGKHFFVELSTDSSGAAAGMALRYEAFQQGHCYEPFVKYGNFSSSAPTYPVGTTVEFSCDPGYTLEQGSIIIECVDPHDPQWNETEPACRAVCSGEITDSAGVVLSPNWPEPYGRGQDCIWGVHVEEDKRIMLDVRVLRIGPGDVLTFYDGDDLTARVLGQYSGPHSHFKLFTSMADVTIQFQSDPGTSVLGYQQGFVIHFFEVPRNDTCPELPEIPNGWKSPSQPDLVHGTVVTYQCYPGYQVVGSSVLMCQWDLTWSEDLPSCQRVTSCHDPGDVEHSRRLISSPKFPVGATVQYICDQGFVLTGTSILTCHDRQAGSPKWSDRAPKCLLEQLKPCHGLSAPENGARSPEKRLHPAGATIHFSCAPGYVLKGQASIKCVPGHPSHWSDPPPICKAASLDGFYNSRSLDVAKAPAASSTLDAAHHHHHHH

binding result (SEZ6L-Fc protein): no binding (tested: 10 nM) | binding result (SEZ6L2-Fc): no binding (tested: 10 nM) | EC50 [1]: 0.07 nM | MFImax [1]: 5340 | Kd [2]: 2 nM | koff [2]: 0.000513 s⁻¹ | kon [2]: 257000 M⁻¹ s⁻¹ | Kd [3]: 4.03 nM | koff [3]: 0.000665 s⁻¹ | kon [3]: 165000 M⁻¹ s⁻¹
B1: PR0071 (Fc fusion)
chain: HVQLVESGGGLVQPGGSLRLSCAVSGFTSSRGWMAWFRQAPGKEREGVAVIGRRSGDIYYADSLKGRFTISHDNAKNSLYLQMNSLRAEDTATYYCAVGDQAGHVLTSSPYRYWGQGTMVTVSS[skipping human IgG1 Fc with C220S (EU numbers)]
notes: also called humanized antibody of cAb314; humanized nanobody

EC50 [1]: 0.05 nM | MFImax [1]: 4580
B2: PR0069 (Fc fusion)
chain: EVQLVESGGGLVQPGGSLRLSCAASGFTFSKDCMAWFRQAPGKGREGVAIISGVGRTRYADSVKGRFTISRDNAKNSLYLQMNSLRAEDTAVYYCAAQRASSSCGSLSRAWYDYWGRGTLVTVSS[skipping human IgG1 Fc with C220S (EU numbers)]
notes: also called humanized antibody of cAb025; humanized nanobody
